# From the supplement of paper PMC11417369
# ± gives the standard deviation of the averaged measurements. This is one part of the list.
# System: PfAP2-G AP2 domain (GST-tagged)
# Test: gcPBM binding intensity (ln(normalized median fluorescence intensity)); higher = stronger DNA binding
# Method in brief: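 Probes on an Agilent 4 × 180k array were primer-extended, double-stranded and 36 bp long, taken from intergenic genomic regions, with negative controls added. GST-tagged P. falciparum DNA-binding domains from E. coli, about 25 μg on average, were applied to the array for 1 h in 1× PBS containing 1% milk, 0.2 mg/ml BSA, 0.5% salmon testes DNA and 0.03% Triton X-100. Binding intensity, obtained after Alexa488 anti-GST antibody detection and a 488 nm scan, is the highest Masliner-normalised natural-log median intensity across replicate spots of either probe orientation.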
row,Sequence,gcPBM binding intensity (ln)
1,AGTAATAAATAATTTACACACATATTATATCATCAC [CACACA_site1890],9.985 ± 0.049
2,CATTTTAAAGAAAATACACACAAAAATAGATATATA [CACACA_site6773],10.18 ± 0.092
3,TTTTTTTTTTTTTGATGTACAATTAATATTATAAAA [XGTACX_site6969],11.2 ± 1
4,AAAAATATATAATAAAGTACACATAAATGAATAAAT [XGTACX_site329],11.5 ± 0.81
5,GAAAAAAATGAAATTAGTACTTATCTTAAATTTTTA [XGTACX_site1018],10.8 ± 0.47
6,AATAATTAAATAAGAGTGCATGAAACAGGAAATTTC,10.16 ± 0.085
7,TAATAAAAAATATATACACACAAATAAATAAATAAA [CACACA_site4037],9.77 ± 0.071
8,AATAGTCGTGTGCATACACACCTTAACTATAATATA [CACACA_site6636],10.1 ± 0.2
9,AGGTGCAAAAATAAAACATGCAAAAATAAAAATGAA [TGCATGCA_site502],10.07 ± 0.028
10,TATATATGTTTTTATGTACACACTTTTAACCTAAGA [CACACA_site1149],11.6 ± 0.99
11,ATGTCTAATTTTGATGCACACTTTTGTGCAATTAAA [CACACA_site5589],10.2 ± 0.3
12,CGCATGCAATGTTAATGTACATATATATATATATGT [XGTACX_site3316],11.7 ± 0.64
13,AAGAAATAAAGCAAAACATGCACTCGAAAATGTTTT [TGCATGCA_site1014],10.01 ± 0.092
14,TATTGTTAAAATGAATAATTAAAACAGTAATGAATA [XGTACX_negctrl_site170],9.72 ± 0.13
15,TTAGCAACTATTACTACACACATTTTTATATAACTT [CACACA_site6762],10.06 ± 0.014
16,TATTACATACCTTATTGTACAAATTATATATTAAAG [XGTACX_site7334],10.8 ± 0.39
17,TATTATATTATGTGATGTACATATTTATATAGGCCC [XGTACX_site4746],11.2 ± 0.8
18,ATTTATTGACTATTTACACACATATTTATTAAAATA [CACACA_site4980],10.2 ± 0.17
19,TACGCTCCCAGACACACACACACACCGATATAATAT [CACACA_site8098],10.3 ± 0.22
20,ACAGTATCTGGTAGCTGTACGAGTCGTAGAGAGTAG [XGTACX_site2041],11.2 ± 0.71
21,ATTCAGTTATATAATACACACATATATTGACATTAT [CACACA_site2723],10.1 ± 0.13
22,TATTAAACTAAATGTAGTACATACACAAAAGAAACC [XGTACX_site606],11.6 ± 0.98
23,AAATTGAAATATTCCTGTACACATTTTGAAAACTTA [XGTACX_site6101],11.5 ± 0.8
24,AAAATATAGTAACACATACACACATATATATTTATA [CACACA_site2504],10 ± 0.24
25,TTGTTATGTTTTATTTGTACGTAGGTTTCTATCAAA [XGTACX_site7636],11.3 ± 0.83
